Measured values reported in the supplement of paper PMC8728848.
The other results are listed elsewhere or left out.

Key:
Assay in all cases: glycan array binding signal (z-score within array); higher = stronger binding
Details in all cases: glycan notation: IUPAC condensed, linker removed
[1] = target: Fuc(a1-3)[Gal(b1-4)]GlcNAc(b1-3)Gal(b1-3)[Fuc(a1-4)]GlcNAc
Summary of the method: (§1)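 Negative Z-scores can be read as non-binding. The Z-score is calculated within each array and then averaged across arrays of one protein sequence at different concentrations or buffers and across linkers. Arrays, 3228 in all, were curated from the Consortium for Functional Glycomics database and kept only where the protein sequence was available.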

[2] = target: Fuc(a1-3)[Gal(b1-4)]GlcNAc(b1-3)Gal(b1-4)[Fuc(a1-3)]GlcNAc
Summary of the method: as §1

[3] = target: Fuc(a1-3)[Gal(b1-4)]GlcNAc(b1-3)Gal(b1-4)[Fuc(a1-3)]GlcNAc(b1-3)Gal(b1-4)[Fuc(a1-3)]GlcNAc
Summary of the method: as §1

[4] = target: Fuc(a1-3)[Gal(b1-4)]GlcNAc(b1-3)GalNAc
Summary of the method: as §1

[5] = target: Fuc(a1-3)[Gal(b1-4)]GlcNAc(b1-6)GalNAc
Summary of the method: as §1

[6] = target: Fuc(a1-3)[Gal(b1-4)]GlcNAc(b1-6)[Gal(b1-3)GlcNAc(b1-3)]Gal(b1-4)Glc
Summary of the method: as §1

[7] = target: Fuc(a1-3)[Gal(b1-4)]GlcNAc6S
Summary of the method: as §1

[8] = target: Fuc(a1-3)[Gal3S(b1-4)]Glc
Summary of the method: as §1

[9] = target: Fuc(a1-3)[Gal3S(b1-4)]GlcNAc
Summary of the method: as §1

[10] = target: Fuc(a1-3)[Gal3S(b1-4)]GlcNAc6S
Summary of the method: as §1

[11] = target: Fuc(a1-3)[GalNAc(b1-4)]GlcNAc
Summary of the method: as §1

[12] = target: Fuc(a1-3)[GalNAc(b1-4)]GlcNAc6S
Summary of the method: as §1

[13] = target: Fuc(a1-4)GlcNAc
Summary of the method: as §1

[14] = target: Fuc(b1-3)GlcNAc
Summary of the method: as §1

[15] = target: Gal(a1-2)Gal
Summary of the method: as §1

[16] = target: Gal(a1-3)Gal
Summary of the method: as §1

[17] = target: Gal(a1-3)Gal(b1-3)GlcNAc
Summary of the method: as §1

[18] = target: Gal(a1-3)Gal(b1-3)GlcNAc(b1-2)Man
Summary of the method: as §1

[19] = target: Gal(a1-3)Gal(b1-3)GlcNAc(b1-2)Man(a1-3)[Gal(a1-3)Gal(b1-3)GlcNAc(b1-2)Man(a1-6)]Man(b1-4)GlcNAc(b1-4)GlcNAc
Summary of the method: as §1

[20] = target: Gal(a1-3)Gal(b1-3)GlcNAc(b1-3)GalNAc
Summary of the method: as §1

[21] = target: Gal(a1-3)Gal(b1-3)GlcNAc(b1-6)GalNAc
Summary of the method: as §1

[22] = target: Gal(a1-3)Gal(b1-3)[Fuc(a1-4)]GlcNAc(b1-2)Man(a1-3)[Gal(a1-3)Gal(b1-3)[Fuc(a1-4)]GlcNAc(b1-2)Man(a1-6)]Man(b1-4)GlcNAc(b1-4)GlcNAc
Summary of the method: as §1

[23] = target: Gal(a1-3)Gal(b1-4)Glc
Summary of the method: as §1

[24] = target: Gal(a1-3)Gal(b1-4)GlcNAc
Summary of the method: as §1

[25] = target: Gal(a1-3)Gal(b1-4)GlcNAc(b1-2)Man
Summary of the method: as §1

[26] = target: Gal(a1-3)Gal(b1-4)GlcNAc(b1-2)Man(a1-3)[Gal(a1-3)Gal(b1-4)GlcNAc(b1-2)Man(a1-6)]Man(b1-4)GlcNAc(b1-4)GlcNAc
Summary of the method: as §1

[27] = target: Gal(a1-3)Gal(b1-4)GlcNAc(b1-3)GalNAc
Summary of the method: as §1

[28] = target: Gal(a1-3)Gal(b1-4)GlcNAc(b1-6)GalNAc
Summary of the method: as §1

[29] = target: Gal(a1-3)Gal(b1-4)[Fuc(a1-3)]GlcNAc
Summary of the method: as §1

[30] = target: Gal(a1-3)Gal(b1-4)[Fuc(a1-3)]GlcNAc(b1-2)Man(a1-3)[Gal(a1-3)Gal(b1-4)[Fuc(a1-3)]GlcNAc(b1-2)Man(a1-6)]Man(b1-4)GlcNAc(b1-4)GlcNAc
Summary of the method: as §1

[31] = target: Gal(a1-3)GalNAc
Summary of the method: as §1

[32] = target: Gal(a1-3)[Gal(a1-4)]Gal(b1-4)GlcNAc
Summary of the method: as §1

[33] = target: Gal(a1-4)Gal(b1-3)GlcNAc(b1-2)Man(a1-3)[Gal(a1-4)Gal(b1-3)GlcNAc(b1-2)Man(a1-6)]Man(b1-4)GlcNAc(b1-4)GlcNAc
Summary of the method: as §1

[34] = target: Gal(a1-4)Gal(b1-4)Glc
Summary of the method: as §1

[35] = target: Gal(a1-4)Gal(b1-4)GlcNAc
Summary of the method: as §1

[36] = target: Gal(a1-4)Gal(b1-4)GlcNAc(b1-2)Man(a1-3)[Gal(a1-4)Gal(b1-4)GlcNAc(b1-2)Man(a1-6)]Man(b1-4)GlcNAc(b1-4)GlcNAc
Summary of the method: as §1

[37] = target: Gal(a1-4)Gal(b1-4)GlcNAc(b1-3)Gal(b1-4)Glc
Summary of the method: as §1

[38] = target: Gal(a1-4)GlcNAc
Summary of the method: as §1

B1: CC1G-11630 (Coprinopsis cinerea), A8P462 (protein)
chain: MTTEAKIKLKAVVYWELVFDYDNSSNTGEITQSYTVKISQTSTRSTFASEVSTTTIDTLTKNNQEVDVGASYGAISANVSASWEHSEEVNNMLEKTTQTSTEDTYTVETEETRSYTIGPGGMLSLFQKHFSGPGMHVAFDVFTTDLELAKERTEIDIDVDVEAIRFVREIRVVYTDIMSEAPGDHVREINGKNPDINYGFNGKFVWLVPEQTRKTAQALTNVEFVSQAESDDRYWDLAAGAGGSNRYLIPVYDTNNKDKIYELALWRSDSYITHDKVKAAGWSGTTGDINSGRGGTYLNLVWKTRHAY
glycan array binding signal (z-score) [1]: -0.651
glycan array binding signal (z-score) [2]: -0.123
glycan array binding signal (z-score) [3]: 0.366
glycan array binding signal (z-score) [4]: -0.182
glycan array binding signal (z-score) [5]: 0.318
glycan array binding signal (z-score) [6]: -0.585
glycan array binding signal (z-score) [7]: -0.085
glycan array binding signal (z-score) [8]: 0.09
glycan array binding signal (z-score) [9]: 0.48
glycan array binding signal (z-score) [10]: 0.066
glycan array binding signal (z-score) [11]: 0.28
glycan array binding signal (z-score) [12]: 0.139
glycan array binding signal (z-score) [13]: -0.863
glycan array binding signal (z-score) [14]: -0.161
glycan array binding signal (z-score) [15]: -0.636
glycan array binding signal (z-score) [16]: -0.124
glycan array binding signal (z-score) [17]: 6.02
glycan array binding signal (z-score) [18]: 0.001
glycan array binding signal (z-score) [19]: 1.44
glycan array binding signal (z-score) [20]: -0.316
glycan array binding signal (z-score) [21]: -0.298
glycan array binding signal (z-score) [22]: 0.161
glycan array binding signal (z-score) [23]: 0.07
glycan array binding signal (z-score) [24]: -0.108
glycan array binding signal (z-score) [25]: -0.486
glycan array binding signal (z-score) [26]: -0.043
glycan array binding signal (z-score) [27]: -0.065
glycan array binding signal (z-score) [28]: -0.602
glycan array binding signal (z-score) [29]: -0.254
glycan array binding signal (z-score) [30]: 0.72
glycan array binding signal (z-score) [31]: -0.128
glycan array binding signal (z-score) [32]: -0.464
glycan array binding signal (z-score) [33]: -0.123
glycan array binding signal (z-score) [34]: 0.088
glycan array binding signal (z-score) [35]: -0.231
glycan array binding signal (z-score) [36]: 0.102
glycan array binding signal (z-score) [37]: -0.489
glycan array binding signal (z-score) [38]: -0.172
